Source: the supplement of paper PMC4166925
± gives the standard deviation of the averaged measurements. Whole data set: some 33,000 sequences, median “E-score (dimensionless, -0.5 to 0.5)” near -0.046, cut for the highest 2% near 0.36. The list shows a part of the results.

tested on: T1, SpTbr T-box DNA-binding domain (GST fusion); assay: PBM E-score of 8-mer (E-score (dimensionless, -0.5 to 0.5)); Tbr is Tbrain of the sea star Patiria miniata (Pm) or the sea urchin Strongylocentrotus purpuratus (Sp); higher = stronger binding preference; most listed sequences are background and not binding sites; conditions: the construct has about 5 more residues each side
T1 sequence: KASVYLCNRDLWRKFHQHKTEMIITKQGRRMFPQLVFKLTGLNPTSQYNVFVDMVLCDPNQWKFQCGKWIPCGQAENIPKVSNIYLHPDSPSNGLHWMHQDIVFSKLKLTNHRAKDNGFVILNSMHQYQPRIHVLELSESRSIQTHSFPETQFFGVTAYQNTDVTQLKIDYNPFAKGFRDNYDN
Outline: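 Using the Universal PBM Analysis Suite, every ungapped 8-mer received an enrichment E-score averaged over duplicate arrays. Probe intensities came from double-stranded Universal Agilent oligonucleotide arrays incubated with 200 nM GST-fused Tbr T-box DNA-binding domain in PBS (pH 7.5). That protein was expressed in BL21 E. coli at 20 °C and purified by glutathione affinity chromatography.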

Which “PBM E-score of 8-mer” value does the source give for CCTTTCAC here?
The value was 0.2919 ± 0.002.

ATTGGCCG was tested. Which “PBM E-score of 8-mer” value did it give?
Its value is -0.0513 ± 0.017.

For CAGACGCC, which “PBM E-score of 8-mer” value is on record?
Its value is 0.0869 ± 0.0014.

How did the “PBM E-score of 8-mer” value turn out when AGGCGAAG was run?
The value was 0.0362 ± 0.05.

Which “PBM E-score of 8-mer” value does the source give for CCGCCCAA here?
Its value is -0.0788 ± 0.015.

How did the “PBM E-score of 8-mer” value turn out when ATTTGCAG was run?
Its value is 0.0673 ± 0.041.

For GCGTTCCA, which “PBM E-score of 8-mer” value is on record?
The value was -0.152 ± 0.0033.

GGCACAAC was tested. Which “PBM E-score of 8-mer” value did it give?
The value was 0.0727 ± 0.06.

CAAAGGTA was tested. Which “PBM E-score of 8-mer” value did it give?
The value was -0.0771 ± 0.04.

Which “PBM E-score of 8-mer” value does the source give for TGTTCCAA here?
The value was -0.0252 ± 0.053.

With CCTCACAC as the sequence, how does the “PBM E-score of 8-mer” value read?
Its value is 0.4723 ± 0.0005.

Which “PBM E-score of 8-mer” value does the source give for ACTACTGC here?
The value was -0.122 ± 0.034.

With CGAGCTCC as the sequence, how does the “PBM E-score of 8-mer” value read?
The value was -0.188 ± 0.041.

How did the “PBM E-score of 8-mer” value turn out when GTTCCTAA was run?
The value was -0.143 ± 0.0023.

Which “PBM E-score of 8-mer” value does the source give for GCATGAGA here?
The value was -0.139 ± 0.053.

How did the “PBM E-score of 8-mer” value turn out when CCAACTCA was run?
Its value is -0.0818 ± 0.049.

With ACATTGAC as the sequence, how does the “PBM E-score of 8-mer” value read?
The value was 0.2 ± 0.0096.

AGGGGTGA was tested. Which “PBM E-score of 8-mer” value did it give?
Its value is 0.214 ± 0.023.

Which “PBM E-score of 8-mer” value does the source give for CAAACGGG here?
Its value is -0.103 ± 0.021.

How did the “PBM E-score of 8-mer” value turn out when GAACCGTA was run?
The value was -0.12 ± 0.015.

With CCGCAGCG as the sequence, how does the “PBM E-score of 8-mer” value read?
The value was 0.0865 ± 0.012.

GCGTAAAC was tested. Which “PBM E-score of 8-mer” value did it give?
The value was 0.193 ± 0.0043.

For CTCGCTGA, which “PBM E-score of 8-mer” value is on record?
The value was 0.0386 ± 0.064.

For ACTTTGGC, which “PBM E-score of 8-mer” value is on record?
Its value is 0.154 ± 0.018.

How did the “PBM E-score of 8-mer” value turn out when ACTATCGA was run?
Its value is 0.0214 ± 0.088.

With ATAAAACG as the sequence, how does the “PBM E-score of 8-mer” value read?
Its value is -0.0723 ± 0.095.

Which “PBM E-score of 8-mer” value does the source give for AATCCGAA here?
The value was -0.176 ± 0.046.

With GCATTTCA as the sequence, how does the “PBM E-score of 8-mer” value read?
The value was 0.00434 ± 0.016.

With GATATGGA as the sequence, how does the “PBM E-score of 8-mer” value read?
The value was -0.253 ± 0.013.

Which “PBM E-score of 8-mer” value does the source give for AGGTTCGG here?
The value was -0.135 ± 0.038.

Which “PBM E-score of 8-mer” value does the source give for ATACATTA here?
Its value is -0.283 ± 0.054.

With AGGCGACA as the sequence, how does the “PBM E-score of 8-mer” value read?
Its value is 0.37 ± 0.013.

How did the “PBM E-score of 8-mer” value turn out when ATCCGTGG was run?
Its value is -0.248 ± 0.014.

For AAGCTGGC, which “PBM E-score of 8-mer” value is on record?
Its value is 0.122 ± 0.0081.

CAGGGAAA was tested. Which “PBM E-score of 8-mer” value did it give?
Its value is -0.189 ± 0.037.

With AATGTCCC as the sequence, how does the “PBM E-score of 8-mer” value read?
Its value is -0.356 ± 0.0083.

AGACCGGC was tested. Which “PBM E-score of 8-mer” value did it give?
The value was 0.00958 ± 0.059.

With GTACCCAA as the sequence, how does the “PBM E-score of 8-mer” value read?
Its value is -0.242 ± 0.0096.

How did the “PBM E-score of 8-mer” value turn out when CACATCTA was run?
The value was 0.314 ± 0.0055.

With GACTAGTC as the sequence, how does the “PBM E-score of 8-mer” value read?
The value was -0.123 ± 0.036.

How did the “PBM E-score of 8-mer” value turn out when AGTATACC was run?
Its value is -0.159 ± 0.029.

For CAGAACCC, which “PBM E-score of 8-mer” value is on record?
The value was -0.17 ± 0.059.

Which “PBM E-score of 8-mer” value does the source give for CTGCCCTC here?
The value was -0.012 ± 0.12.

GCGACCAC was tested. Which “PBM E-score of 8-mer” value did it give?
Its value is 0.152 ± 0.045.

AGAACCGA was tested. Which “PBM E-score of 8-mer” value did it give?
The value was -0.0135 ± 0.058.

Which “PBM E-score of 8-mer” value does the source give for CAGGTGCG here?
The value was 0.454 ± 0.01.

AGTCGTGC was tested. Which “PBM E-score of 8-mer” value did it give?
Its value is 0.142 ± 0.015.

Which “PBM E-score of 8-mer” value does the source give for AGGTCCCC here?
The value was -0.3155 ± 0.00044.

How did the “PBM E-score of 8-mer” value turn out when AGTTGCAC was run?
Its value is 0.115 ± 0.0096.

With ATGTTAGC as the sequence, how does the “PBM E-score of 8-mer” value read?
Its value is 0.0874 ± 0.016.

ACTCAATC was tested. Which “PBM E-score of 8-mer” value did it give?
Its value is -0.0092 ± 0.032.

How did the “PBM E-score of 8-mer” value turn out when TAGTTAGA was run?
The value was -0.195 ± 0.024.

How did the “PBM E-score of 8-mer” value turn out when ACGTTCGC was run?
Its value is 0.251 ± 0.03.

For AGAACGGC, which “PBM E-score of 8-mer” value is on record?
Its value is -0.0791 ± 0.027.

How did the “PBM E-score of 8-mer” value turn out when CCATGAAC was run?
The value was -0.09459 ± 0.00029.

Which “PBM E-score of 8-mer” value does the source give for TATGGACA here?
The value was -0.142 ± 0.03.

For ACTGGCTC, which “PBM E-score of 8-mer” value is on record?
Its value is -0.087 ± 0.038.

AATCAACG was tested. Which “PBM E-score of 8-mer” value did it give?
Its value is -0.0642 ± 0.022.

How did the “PBM E-score of 8-mer” value turn out when GGTTGTAC was run?
Its value is 0.0395 ± 0.061.

Which “PBM E-score of 8-mer” value does the source give for CAAAAATA here?
Its value is -0.199 ± 0.039.

With GTCGAAAC as the sequence, how does the “PBM E-score of 8-mer” value read?
Its value is -0.0507 ± 0.013.

For ATGAACGC, which “PBM E-score of 8-mer” value is on record?
The value was -0.0517 ± 0.018.

ATAGCGTC was tested. Which “PBM E-score of 8-mer” value did it give?
The value was 0.125 ± 0.0054.

Which “PBM E-score of 8-mer” value does the source give for GCCACGCC here?
The value was 0.155 ± 0.0018.

With CACTTCGA as the sequence, how does the “PBM E-score of 8-mer” value read?
Its value is 0.228 ± 0.029.

With CTACAGGC as the sequence, how does the “PBM E-score of 8-mer” value read?
Its value is -0.131 ± 0.028.

Which “PBM E-score of 8-mer” value does the source give for CCAAATCC here?
Its value is -0.113 ± 0.0018.

Which “PBM E-score of 8-mer” value does the source give for GCGAGGGA here?
Its value is 0.162 ± 0.052.

With ACATTTCC as the sequence, how does the “PBM E-score of 8-mer” value read?
Its value is -0.055 ± 0.0025.

For ACATGTTG, which “PBM E-score of 8-mer” value is on record?
The value was 0.173 ± 0.055.

How did the “PBM E-score of 8-mer” value turn out when GATTCAGC was run?
Its value is -0.199 ± 0.004.

TCCTATAA was tested. Which “PBM E-score of 8-mer” value did it give?
The value was -0.202 ± 0.019.

How did the “PBM E-score of 8-mer” value turn out when CAATAATG was run?
The value was -0.142 ± 0.02.

GAAGACAA was tested. Which “PBM E-score of 8-mer” value did it give?
The value was 0.0878 ± 0.016.

TGAAGAAA was tested. Which “PBM E-score of 8-mer” value did it give?
Its value is -0.0361 ± 0.045.

For GCCTAGAA, which “PBM E-score of 8-mer” value is on record?
Its value is -0.103 ± 0.019.

How did the “PBM E-score of 8-mer” value turn out when CTATCCGA was run?
Its value is -0.299 ± 0.087.

Which “PBM E-score of 8-mer” value does the source give for CCACATCC here?
The value was -0.0299 ± 0.14.

For CAGACTGG, which “PBM E-score of 8-mer” value is on record?
The value was -0.33 ± 0.011.

With AATATAGG as the sequence, how does the “PBM E-score of 8-mer” value read?
The value was -0.00887 ± 0.12.

With TCGAACAA as the sequence, how does the “PBM E-score of 8-mer” value read?
Its value is -0.143 ± 0.034.

For CGTGGGAC, which “PBM E-score of 8-mer” value is on record?
The value was 0.0261 ± 0.0086.

How did the “PBM E-score of 8-mer” value turn out when CTGGCTCA was run?
Its value is 0.118 ± 0.035.

Which “PBM E-score of 8-mer” value does the source give for ACATCTGG here?
Its value is 0.0231 ± 0.025.

Which “PBM E-score of 8-mer” value does the source give for GAAGGAGC here?
Its value is -0.156 ± 0.084.

Which “PBM E-score of 8-mer” value does the source give for CTCCACGA here?
Its value is -0.0217 ± 0.068.
